Substitutions are numbered along the chain they refer to.

The target in series [1] is T1, human serpin B1 C344S variant.
T1 chain: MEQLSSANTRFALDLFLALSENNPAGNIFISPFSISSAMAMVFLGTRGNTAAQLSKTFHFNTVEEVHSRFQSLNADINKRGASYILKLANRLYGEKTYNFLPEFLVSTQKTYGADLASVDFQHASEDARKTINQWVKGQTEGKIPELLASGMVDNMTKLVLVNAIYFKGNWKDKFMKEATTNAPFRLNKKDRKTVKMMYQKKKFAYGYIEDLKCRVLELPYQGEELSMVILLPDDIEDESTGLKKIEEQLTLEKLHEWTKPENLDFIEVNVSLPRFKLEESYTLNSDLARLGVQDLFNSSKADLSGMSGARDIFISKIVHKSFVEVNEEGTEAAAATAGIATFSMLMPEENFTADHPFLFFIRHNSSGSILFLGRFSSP

The target in series [2] is T2, rhsB1D, intermolecular disulfide-bonded dimeric form of rhsB1-cys344.
T2 chain: T1 chain with S344C

In series [3] the target is T3, rhsB1M*, post-translationally modified (oxidized) monomeric form of rhsB1-cys344.
T3 chain: T1 chain with S344C

B1: porcine pancreatic elastase (protein)
chain: VVGGTEAQRNSWPSQISLQYRSGSSWAHTCGGTLIRQNWVMTAAHCVDRELTFRVVVGEHNLNQNDGTEQYVGVQKIVVHPYWNTDDVAAGYDIALLRLAQSVTLNSYVQLGVLPRAGTILANNSPCYITGWGLTRTNGQLAQTLQQAYLPTVDYAICSSSSYWGSTVKNSMVCAGGDGVRSGCQGDSGGPLHCLVNGQYAVHGVTSFVSRLGCNVTRKPTVFTRVSAYISWINNVIASN
For the protein B1, in series [1], the “cleavage by PPE (SDS-PAGE of reaction products)” value is “the C344S serpin B1 variant is rapidly cleaved and inactivated by PPE at enzyme:inhibitor ratios that would normally form SDS and heat stable complexes with wild-type (C344) serpin B1”. For the same protein, the “cleavage by PPE (SDS-PAGE)” value in series [2] was “Both rhsB1D and rhsB1M* were specifically degraded to lower molecular species of approximately 38 kDa at E:I molar ratios ≥1:100 within a 30 minute time period”; in series [3], “Both rhsB1D and rhsB1M* were specifically degraded to lower molecular species of approximately 38 kDa at E:I molar ratios ≥1:100 within a 30 minute time period”.

The values above are taken from US20220267412.
